Experimental data taken from PMC3781321.
These are yes or no findings as the source states them, for the method shown. For some of these results: Binding seen in cells or lysates may run through a third protein. Some entries that bind do so weakly or less than the wild type.

The chains behind the UniProt entries cited, without tags or fusion partners.
UniProt Q7TMB8: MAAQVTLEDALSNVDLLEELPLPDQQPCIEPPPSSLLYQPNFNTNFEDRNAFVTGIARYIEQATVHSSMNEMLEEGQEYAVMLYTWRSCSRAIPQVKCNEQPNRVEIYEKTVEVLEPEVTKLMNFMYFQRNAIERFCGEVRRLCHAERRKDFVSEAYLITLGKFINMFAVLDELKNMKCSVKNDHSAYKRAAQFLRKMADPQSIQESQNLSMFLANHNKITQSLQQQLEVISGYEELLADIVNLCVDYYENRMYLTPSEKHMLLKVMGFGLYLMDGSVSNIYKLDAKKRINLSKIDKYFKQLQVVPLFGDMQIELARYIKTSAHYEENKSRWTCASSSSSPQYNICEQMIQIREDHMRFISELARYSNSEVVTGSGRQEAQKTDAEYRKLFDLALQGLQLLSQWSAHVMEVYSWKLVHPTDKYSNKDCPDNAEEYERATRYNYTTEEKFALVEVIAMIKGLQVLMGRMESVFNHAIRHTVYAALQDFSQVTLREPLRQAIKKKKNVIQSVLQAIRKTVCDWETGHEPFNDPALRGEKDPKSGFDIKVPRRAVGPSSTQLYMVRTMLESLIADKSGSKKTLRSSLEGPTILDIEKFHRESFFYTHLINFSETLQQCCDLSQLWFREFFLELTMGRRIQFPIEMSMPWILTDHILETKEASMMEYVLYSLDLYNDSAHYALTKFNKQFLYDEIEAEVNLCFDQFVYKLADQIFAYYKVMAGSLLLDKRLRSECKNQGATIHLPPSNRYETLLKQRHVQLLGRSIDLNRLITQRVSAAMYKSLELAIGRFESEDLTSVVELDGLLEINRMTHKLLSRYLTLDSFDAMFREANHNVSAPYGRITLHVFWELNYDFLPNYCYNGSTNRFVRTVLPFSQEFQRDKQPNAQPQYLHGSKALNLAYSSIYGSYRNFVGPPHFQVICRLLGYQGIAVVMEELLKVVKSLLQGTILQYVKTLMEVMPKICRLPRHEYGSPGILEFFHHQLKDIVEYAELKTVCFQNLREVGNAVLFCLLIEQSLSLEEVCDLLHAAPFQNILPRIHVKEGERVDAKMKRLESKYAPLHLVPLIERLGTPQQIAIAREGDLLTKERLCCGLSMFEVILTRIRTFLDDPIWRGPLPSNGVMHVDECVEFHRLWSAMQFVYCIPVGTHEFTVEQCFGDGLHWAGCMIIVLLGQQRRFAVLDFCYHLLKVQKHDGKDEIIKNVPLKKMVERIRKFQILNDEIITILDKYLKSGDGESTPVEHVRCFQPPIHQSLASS
UniProt P63073: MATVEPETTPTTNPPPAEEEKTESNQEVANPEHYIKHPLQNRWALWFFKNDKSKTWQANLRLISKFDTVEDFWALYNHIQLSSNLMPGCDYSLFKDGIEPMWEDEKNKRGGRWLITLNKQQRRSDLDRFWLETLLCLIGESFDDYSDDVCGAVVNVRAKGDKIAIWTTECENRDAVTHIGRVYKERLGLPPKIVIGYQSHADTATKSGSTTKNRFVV
UniProt O08788: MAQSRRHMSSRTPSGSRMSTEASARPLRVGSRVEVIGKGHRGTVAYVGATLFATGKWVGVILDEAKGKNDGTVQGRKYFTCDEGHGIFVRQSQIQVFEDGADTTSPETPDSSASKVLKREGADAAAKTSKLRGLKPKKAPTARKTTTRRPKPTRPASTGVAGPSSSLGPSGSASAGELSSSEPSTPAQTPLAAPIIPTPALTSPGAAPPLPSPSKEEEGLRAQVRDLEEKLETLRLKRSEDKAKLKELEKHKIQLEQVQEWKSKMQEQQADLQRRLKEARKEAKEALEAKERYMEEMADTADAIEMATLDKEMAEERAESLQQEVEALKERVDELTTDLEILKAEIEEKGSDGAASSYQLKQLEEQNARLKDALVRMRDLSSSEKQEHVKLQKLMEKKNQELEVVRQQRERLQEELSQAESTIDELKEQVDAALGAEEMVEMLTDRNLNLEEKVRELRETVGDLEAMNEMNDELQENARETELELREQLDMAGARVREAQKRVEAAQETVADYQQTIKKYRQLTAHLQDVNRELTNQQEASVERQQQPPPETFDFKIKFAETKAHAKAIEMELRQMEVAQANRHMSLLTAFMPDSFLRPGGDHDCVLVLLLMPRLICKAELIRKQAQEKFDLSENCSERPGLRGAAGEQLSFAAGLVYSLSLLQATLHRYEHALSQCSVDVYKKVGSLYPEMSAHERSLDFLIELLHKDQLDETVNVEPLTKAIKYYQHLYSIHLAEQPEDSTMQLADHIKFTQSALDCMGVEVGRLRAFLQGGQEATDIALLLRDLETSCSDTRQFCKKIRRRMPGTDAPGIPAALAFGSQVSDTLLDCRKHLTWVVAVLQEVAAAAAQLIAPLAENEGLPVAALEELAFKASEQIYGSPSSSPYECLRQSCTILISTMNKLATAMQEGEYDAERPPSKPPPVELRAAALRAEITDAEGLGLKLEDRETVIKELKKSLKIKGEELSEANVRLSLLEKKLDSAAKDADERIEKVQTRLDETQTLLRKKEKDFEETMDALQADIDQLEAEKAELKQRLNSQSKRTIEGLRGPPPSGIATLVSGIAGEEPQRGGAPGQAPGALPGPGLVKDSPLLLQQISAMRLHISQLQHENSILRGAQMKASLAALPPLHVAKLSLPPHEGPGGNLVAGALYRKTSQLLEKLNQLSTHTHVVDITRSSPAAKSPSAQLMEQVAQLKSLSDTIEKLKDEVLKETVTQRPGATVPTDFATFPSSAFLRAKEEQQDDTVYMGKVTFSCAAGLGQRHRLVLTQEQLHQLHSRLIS
UniProt P29341: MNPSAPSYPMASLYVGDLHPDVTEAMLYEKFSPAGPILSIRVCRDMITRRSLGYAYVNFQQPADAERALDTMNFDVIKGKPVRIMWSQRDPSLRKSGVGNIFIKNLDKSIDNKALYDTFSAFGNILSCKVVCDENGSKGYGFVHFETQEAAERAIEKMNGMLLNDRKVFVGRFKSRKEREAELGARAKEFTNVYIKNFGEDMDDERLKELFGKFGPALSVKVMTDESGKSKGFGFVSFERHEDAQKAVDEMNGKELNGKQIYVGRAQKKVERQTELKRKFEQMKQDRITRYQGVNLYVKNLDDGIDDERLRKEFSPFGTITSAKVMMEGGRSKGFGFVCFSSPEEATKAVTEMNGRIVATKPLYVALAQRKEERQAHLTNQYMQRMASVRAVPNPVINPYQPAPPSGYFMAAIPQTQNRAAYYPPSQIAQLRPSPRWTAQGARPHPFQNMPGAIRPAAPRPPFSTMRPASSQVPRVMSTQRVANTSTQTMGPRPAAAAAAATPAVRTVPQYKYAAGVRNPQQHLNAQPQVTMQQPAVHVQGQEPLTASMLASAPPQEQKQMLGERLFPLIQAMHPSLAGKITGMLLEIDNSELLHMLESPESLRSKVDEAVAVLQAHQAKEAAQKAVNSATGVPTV

Legend:
[1] = target: cytoplasmic FMRP-interacting protein 1 (CYFIP1), mouse, endogenous (mouse (endogenous in cortex)) (UniProt Q7TMB8); experiment: co-IP; CYFIP1 IP from RNase-treated mouse cortical lysates
[2] = target: cytoplasmic FMRP-interacting protein 1 (CYFIP1), mouse, endogenous (mouse (endogenous in cortex)) (UniProt Q7TMB8); experiment: co-IP; mouse cortical lysates, endogenous proteins, no RNase; reverse IPs of the interactors (Figure 6B, S6) and CYFIP1 IP (Figure 6C, lane 2); rabbit and mouse IgGs as controls
[3] = target: eIF4E, mouse, endogenous (mouse (endogenous in cortex)) (UniProt P63073); experiment: m7GTP chromatography; m7GTP chromatography on mouse cortical extracts; eIF4E and proteins associated with it isolated on the cap analogue
[4] = target: T1, Caprin1, mouse, endogenous (mouse (endogenous in cortex)) (UniProt Q60865); experiment: co-IP; mouse cortical lysates, endogenous proteins, no RNase; reverse IPs of the interactors (Figure 6B, S6) and CYFIP1 IP (Figure 6C, lane 2); rabbit and mouse IgGs as controls
T1 sequence: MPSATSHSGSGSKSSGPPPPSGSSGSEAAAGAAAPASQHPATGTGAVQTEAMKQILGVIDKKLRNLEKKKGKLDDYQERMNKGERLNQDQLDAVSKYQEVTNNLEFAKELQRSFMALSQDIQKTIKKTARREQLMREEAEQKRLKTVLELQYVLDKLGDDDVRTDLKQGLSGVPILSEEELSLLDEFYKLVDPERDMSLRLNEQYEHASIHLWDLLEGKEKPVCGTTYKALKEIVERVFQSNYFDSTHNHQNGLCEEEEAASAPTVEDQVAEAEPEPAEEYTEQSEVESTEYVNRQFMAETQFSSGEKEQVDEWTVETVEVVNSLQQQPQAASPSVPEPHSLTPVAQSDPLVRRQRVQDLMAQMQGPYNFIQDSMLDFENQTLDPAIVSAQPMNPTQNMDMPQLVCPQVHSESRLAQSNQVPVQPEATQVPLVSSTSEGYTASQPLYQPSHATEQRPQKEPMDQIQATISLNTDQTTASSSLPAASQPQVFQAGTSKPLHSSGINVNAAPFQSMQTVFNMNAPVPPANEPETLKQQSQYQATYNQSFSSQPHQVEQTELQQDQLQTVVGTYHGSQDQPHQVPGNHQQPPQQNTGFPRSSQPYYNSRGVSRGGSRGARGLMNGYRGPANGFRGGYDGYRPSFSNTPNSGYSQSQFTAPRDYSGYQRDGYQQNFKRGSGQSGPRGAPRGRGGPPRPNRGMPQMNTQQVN

[5] = target: DCTN1, mouse, endogenous (mouse (endogenous in cortex)) (UniProt O08788); experiment: as above
[6] = target: PABP1, mouse, endogenous (mouse (endogenous in cortex)) (UniProt P29341); experiment: as above
[7] = target: eIF4E, mouse, endogenous (mouse (endogenous in cortex)) (UniProt P63073); experiment: as above
[8] = target: T2, NCKAP1, mouse, endogenous (mouse (endogenous in cortex)) (UniProt P28660); experiment: co-IP; mouse cortical synaptoneurosomes, endogenous proteins; IP of CYFIP1, NCKAP1 or eIF4E, control IgGs; also after BDNF (100 ng/ml, 30 min) with/without NSC23766 (200 uM, 10 min pretreatment)
T2 sequence: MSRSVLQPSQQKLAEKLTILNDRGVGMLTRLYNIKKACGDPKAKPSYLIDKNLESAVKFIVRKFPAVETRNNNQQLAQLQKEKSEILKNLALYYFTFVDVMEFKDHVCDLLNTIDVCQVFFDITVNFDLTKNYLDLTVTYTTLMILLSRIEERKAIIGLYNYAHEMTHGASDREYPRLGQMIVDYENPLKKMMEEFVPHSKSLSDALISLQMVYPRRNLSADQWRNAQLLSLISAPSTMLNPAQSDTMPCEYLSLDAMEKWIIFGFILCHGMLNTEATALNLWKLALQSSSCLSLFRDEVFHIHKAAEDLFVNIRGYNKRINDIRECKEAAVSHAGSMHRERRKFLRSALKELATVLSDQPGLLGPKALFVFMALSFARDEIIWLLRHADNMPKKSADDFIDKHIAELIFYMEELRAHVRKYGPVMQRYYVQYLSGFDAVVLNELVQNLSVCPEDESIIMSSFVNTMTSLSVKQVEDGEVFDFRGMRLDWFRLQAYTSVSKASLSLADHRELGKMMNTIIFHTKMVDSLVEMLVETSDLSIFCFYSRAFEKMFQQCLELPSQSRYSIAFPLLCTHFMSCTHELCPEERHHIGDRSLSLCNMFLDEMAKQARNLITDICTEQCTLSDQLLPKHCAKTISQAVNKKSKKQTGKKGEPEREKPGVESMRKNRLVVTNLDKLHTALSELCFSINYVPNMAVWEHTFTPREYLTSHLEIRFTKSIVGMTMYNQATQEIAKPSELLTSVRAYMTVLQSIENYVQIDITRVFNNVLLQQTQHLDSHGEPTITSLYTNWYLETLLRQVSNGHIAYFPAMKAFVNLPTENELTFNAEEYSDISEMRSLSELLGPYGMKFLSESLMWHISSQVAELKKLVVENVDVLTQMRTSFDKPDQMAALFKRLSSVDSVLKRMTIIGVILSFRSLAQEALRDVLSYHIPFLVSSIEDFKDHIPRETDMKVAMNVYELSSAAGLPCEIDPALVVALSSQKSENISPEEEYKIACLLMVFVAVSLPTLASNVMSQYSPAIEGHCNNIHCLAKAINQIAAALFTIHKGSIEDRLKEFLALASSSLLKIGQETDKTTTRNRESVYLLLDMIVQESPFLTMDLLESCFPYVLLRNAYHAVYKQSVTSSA

[9] = target: eIF4E, mouse, endogenous (mouse (endogenous in cortex)) (UniProt P63073); experiment: as above
[10] = target: cytoplasmic FMRP-interacting protein 1 (CYFIP1), mouse, endogenous (mouse (endogenous in cortex)) (UniProt Q7TMB8); experiment: as above

For “DCTN1, mouse, endogenous (from UniProt O08788 1-1281)”, the binding [1] was “binds” and the binding [2] was “binds”.

“PABP1, mouse, endogenous (from UniProt P29341 1-636)” was tested, and the binding [1] was “binds” and the binding [2] was “binds”.

For “cytoplasmic FMRP-interacting protein 1 (CYFIP1), mouse, endogenous (from UniProt Q7TMB8 1-1253)”, the binding [3] was “binds”, the binding [4] was “binds” and the binding [5] was “binds”. The binding [6] was “binds”, the binding [7] was “binds” and the binding [8] was “binds”. The binding [9] was “binds”.

In the case of “eIF4E, mouse, endogenous (from UniProt P63073 1-217)”, the binding [1] is reported as “binds”, the binding [2] is reported as “binds” and the binding [8] is reported as “no binding”. For the same molecule, the binding [10] was “binds”.

B1: NCKAP1, mouse, endogenous (protein, UniProt P28660 1-1128)
chain: T2 sequence
B1 was tested, and the binding [3] was “no binding”, the binding [10] was “binds” and the binding [9] was “no binding”.

B2: WAVE1, mouse, endogenous (protein, UniProt Q8R5H6 1-559)
chain: MPLVKRNIDPRHLCHTALPRGIKNELECVTNISLANIIRQLSSLSKYAEDIFGELFNEAHSFSFRVNSLQERVDRLSVSVTQLDPKEEELSLQDITMRKAFRSSTIQDQQLFDRKTLPIPLQETYDVCEQPPPLNILTPYRDDGKEGLKFYTNPSYFFDLWKEKMLQDTEDKRKEKRKQKQKNLDRPHEPEKVPRAPHDRRREWQKLAQGPELAEDDADLLHKHIEVANGPASHYETRPQTYVDHMDGSYSLSALPFSQMSELLTRAEERVLVRPHEPPPPPPMHGAGDAKPTPTCISSATGLIENRPQSPAAGRTPVFVSPTPPPPPPPLPSALSTSSLRASMTSTPPPPVPPPPPPPATALQAPAVPPPPAPLQIAPGVLHPAPPPIAPPLVQPSPPVARAAPVCETVPVHPLPQGEVQGLPPPPPPPPLPPPGIRPSSPVAVAALAHPPSGLHPAPSTAPGPHAPLMPPSPPSQVLPASEPKRHPSTLPVISDARSVLLEAIRKGIQLRKVEEQREQEAKHERIENDVATILSRRIAVEYSDSEDDSEFDEVDWLE
For B2, the binding [10] was “binds”.
